Results taken from the RNAGym collection of RNA variant scans (doi:10.7554/elife.90254).
The source gives no read counts; variants with many changes may rest on few reads.

B1: LINE1-mini (parent)
chain: GGCAGAGCUCAACACAGCGUGGCAAAGUGGCUGUGGCUAGACUGCC

Variants of: B1
Assay: self-cleavage, relative activity (ratio to wild type); higher = more cleavage; in vitro, sequencing; the parent is a self-cleaving ribozyme

Variant	self-cleavage
A14G G27A G30U	0.13
G17U C18G G21C	0.1
G5U G30A G40U	0.05
C13A A16U U20C G29U	0.1
G2C G17U C18G A26C	0.07
C13A G30A C31U G35C	0.03
C15U G21A G40A	0.07
A4C C18A C31U	0.04
G2U C3A U9A A11U A16U	0.03
C10A A16C A24U C31G C45U	0.02
C3U C10A G30U G33U G44A	0.02
C3A A4C G33A	0.67
G7U A25G G36A U43G	0.04
G5U G7U A26G A41C	0.04
C13A G19C G27C U34G	0.03
A4G A6U G22U U34G G40C C45U	0.13
A12U C13A A14G	0.11
G7C G19U U20A G29U	0.08
G1A C23U U43A	0.04
G7A A12U G22A A41G	0.64
G1C C13A G17U	0.06
A6C A14U G17A A26G	0.15
A4U C23A A24G G29A	0.08
A14U G33C G44U	0.05

Variant	self-cleavage
C3A G7U C8G A25U	1.12
A12G C18G C37U	0.03
C10U C15U G29U	0.19
C3U C8A C18G G30C C46A	0.17
C23G G33C U34G G36C C45G	0.02
A4C G7U C15U U20G A39C	0.25
A6U A11C C23G U28C G29A A39U	0.01
A4C G33C G40C C45A	0.02
G2U C13U G33U C42G	0.08
G7A C8A C10A	0.02
G17U U20A U32A	0.02
G7A U9G C18A C31U	0.03
C23A G29A U43A	0.23
C13A C15U A16G U34G C37A	0.06
A6C G7A U20G	0.1
G21C C23U G27C G35A G44C	0.16
A16G G30A U38G G44U	0.04
C3G C8A C15U G27U U34G	0.26
A4C U20A G22C U28C C42G U43C	0.01
G1U C3A C18A G36A C37U	0.06
C18A U20A A26C A41C	0.07
A6U C45G C46U	1.41
A24U U28A U43G	0
G2A C23U U34G C37A	0.52

Variant	self-cleavage
A6C C13A C18A U28C U38C	0.02
G5C C18U G19U C23U G30U U32A C37G G40U	0
G1C G2U A25C C31G	0.03
A12G G19C U38G	0.05
G1C A26C U38C	0.05
C3A G7U C10G C13A G21C G29U G30U C31A A39C	0.02
U20C C23A C37A G44C	0.04
A11G U20G U38A	0.01
A4U C13G C45A	0.06
A12C A14U C18A G21U U32G	0
G1A G2A C8A A14C U28C C45U	1.08
C10A G36U U43A	0
A14G A25U G30U	0.53
G1A G35A G44A	0.06
G21A A25C G27U G40C G44C	0.07
G2C U28C U32G U34C	0.01
C3A A4G G21U C37G G40C	0.29
G2C C23U A24U C45G C46G	0.2
G1A G33C G36C G44A	0.07
U9A U28G A41G	0.07
G1U C3A G35A	0.33
C13U G17A C18G A39C	0.01
C13A C15A A41U	0.11
A4G C8A A26U	0.84

Variant	self-cleavage
G2A A4U G19U	0.29
C15U U20A G33C G35C	0.02
C3U G5U G44C	0.05
A6C A12G C15A C18G A41G	0.13
G5A G7C C15G C18A C23U A26U G35A	0.06
G1C C10A G35U	0.02
G7C A12U A24G	0.11
G7A C18U G19U G21U	0.54
G2A A4C A25C G33U C45U	0.01
G5A C8A C15U G36U	0.41
C18A G22C C37A	0.02
C3U C18U A25C A26C U28A G35C	0.1
A12G C13G G22C G29A G36A	0.06
G22U C23U G30C G35U	0.04
C3G A16G A24G A25U G35C U43C	0.05
G7A A14G C15U U32G	0.43
U20C G29A G33C C37U	0.02
A12U G27U G35U G36C	0.04
G1A A26G U34C	0.09
G21C A25G G30A	0.73
C13G G17U A41C	0.17
A26G G27A U34C	0.05
C3U C8G C15A	0.31
A25U A41C C45A	0.07

Variant	self-cleavage
U9A A11G G17C	0.04
U20G C23U C45A	0.39
G21A U32C C37A	0.04
G1C G30C C31G C45G	0.02
A4U A16G G30A	0.07
A6C U34C G40U	0.45
C3A C8A C15G C46A	0.57
C13G A14C C18A	0.15
C8G G29U G36U	0.03
C10G A11U G35A G36A C37U C42U G44A	0
C3U G5U A14U C15G G22U	0.03
G7C U34C G36U	0.14
A12C A14C C15U G27A	0.02
G2A C10G G21A G30C U38C G40U	0.01
C8G C15G G22C A39U	0.01
G2A A25G G30U U43C	0.04
G5C G29U A39C	0.05
C15G U20A U28A C37U A39C	0
G5C C8G C13A C23A C37A	0
G2A U20C C23A A24C	0.25
C15G G40U C46A	0
C8A G36A A39U	0.09
A14U G35C G40C A41C	0.02
C10G C23U A25G G36A U38A A39C C42G	0.01

Variant	self-cleavage
A11G G17A C45G	0.02
A26U G27A G30C G40A	0.16
C10G G27A G40U A41G	0.01
G5A G7A G17C A39C A41U C42G	0.26
G2U C10A A11U	0.02
G17C G35U G36A G40C	0.02
G2C C31U G33U	0.07
C10A G17A A26G	0.05
C18A C23U G29U U38C	1.02
G1U U34G G35A	0.03
C31A G40U G44U	0
U9G U28G C46U	0.08
G1C G5U A16C G27U A41U C42A	0.04
G7C U9C U28C C46U	0.11
G33U U38G G44A	0.02
G5A A12G G17U G40C	0.06
A6U C31G G35A U38A	0.02
G2A C31U U43A	0.24
G2A C3G A25U U38A	2.14
A24G A26G G36A	0.1
A12C C37A U38G	0.02
G5C C8U G17U G19A A24U A26G	0.02
C13U G21U C37G	0.02
U20G G35U A39C A41U G44C	0.06

Variant	self-cleavage
G2U U20A U43A	0.02
G7C C8A A14C G22A	0.1
A16C G40U U43A G44U	0.06
C13U G36A G40U C42A	0.03
G2C U32C C37G	0.01
G2U C18U G22A	0.04
C3G C37G U38C A39G C45G	0.06
C13U G30A G44U	0.01
U9A G19C A41U C45U	0.07
A14C C15G U28A G30A	0.01
C13A A14U A24C G44U	0.46
C15U A16C G40A	0.11
A12G A14U G35U	0.01
U20C C23G A24U	0.15
G5A C13G G27C	0
A6C A12U C42A	0.14
C13G G17A C37U	0.11
G17A U28G G40C	0.02
A6U G7U A11G G29C U34A C37U	0.01
C8A C10G G17A G27C	0
G2U A11C C18G	0
G5U A6C A11U G40A	0.03
G7A C10U C15U C18G	0.1
